Measured values taken from the supplement of paper PMC4967469.
Lines with a small IC50 respond at low doses; fits outside the tested doses are given as limits. AUC sums up the same curve from the lowest dose to the 256-fold higher top dose; the more sensitive the line, the further below 1. For part of these data: Where the top dose is marked as inferred, it is not printed in the source and was worked back from the curve model.

Columns and labels:
Assay in all cases: Viability of human cancer cell lines after 72 h of drug (GDSC screen)
AG-014699 = compound: CNCc1ccc(-c2[nH]c3cc(F)cc4c3c2CCNC4=O)cc1 [AG-014699]; conditions: top dose 5 µM; top dose inferred
Method: (§1)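 Human cancer cell lines in 384-well plates, medium with 10% serum, drug for 72 h over a 256-fold dose range (nine 2-fold or five 4-fold steps up to the top dose). Adherent lines were fixed and stained with the nucleic acid dye Syto60, suspension lines read with resazurin; signal relative to control wells, capped at 0 and 100%. One two-parameter sigmoid per drug and line, fitted in a mixed model over all curves with the slope shared within a line.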

Phenformin = compound: N=C(N)NC(=N)NCCc1ccccc1 [Phenformin]; conditions: top dose 4000 µM; top dose inferred
Method: as §1

Gefitinib = compound: COc1cc2ncnc(Nc3ccc(F)c(Cl)c3)c2cc1OCCCN1CCOCC1 [Gefitinib]; conditions: top dose 0.5 µM
Method: as §1

WHI-P97 = compound: COc1cc2ncnc(Nc3cc(Br)c(O)c(Br)c3)c2cc1OC [WHI-P97]; conditions: top dose 10.24 µM; top dose inferred
Method: as §1

EHT 1864 = compound: O=c1cc(CN2CCOCC2)occ1OCCCCCSc1ccnc2cc(C(F)(F)F)ccc12 [EHT 1864]; conditions: top dose 10 µM; top dose inferred
Method: as §1

XL-184 = compound: COc1cc2nccc(Oc3ccc(NC(=O)C4(C(=O)Nc5ccc(F)cc5)CC4)cc3)c2cc1OC [XL-184]; conditions: top dose 5.12 µM; top dose inferred
Method: as §1

Vinorelbine = compound: CCC1=C[C@@H]2CN(C1)Cc1c([nH]c3ccccc13)[C@@](C(=O)OC)(c1cc3c(cc1OC)N(C)[C@H]1[C@@](O)(C(=O)OC)[C@H](OC(C)=O)[C@]4(CC)C=CCN5CC[C@]31[C@@H]54)C2 [Vinorelbine]; conditions: top dose 0.064 µM; top dose inferred
Method: as §1

QL-XI-92 = compound: C=CC(=O)Nc1cc(NC(=O)c2ccc(C)c(NC(=O)c3ccno3)c2)cc(C(F)(F)F)c1 [QL-XI-92]; conditions: top dose 10.24 µM; top dose inferred
Method: as §1

NU-7441 = compound: O=c1cc(N2CCOCC2)oc2c(-c3cccc4c3sc3ccccc34)cccc12 [NU-7441]; conditions: top dose 2 µM; top dose inferred
Method: as §1

Cell Line	AUC (AG-014699)	IC50 (AG-014699)	AUC (Phenformin)	IC50 (Phenformin)	AUC (Gefitinib)	IC50 (Gefitinib)	AUC (WHI-P97)	IC50 (WHI-P97)	AUC (EHT 1864)	IC50 (EHT 1864)	AUC (XL-184)	IC50 (XL-184)	AUC (Vinorelbine)	IC50 (Vinorelbine)	AUC (QL-XI-92)	IC50 (QL-XI-92)	AUC (NU-7441)	IC50 (NU-7441)
SKN (uterus, adherent)	0.969	> 5 µM	0.94	> 4000 µM	0.942	> 0.5 µM	0.957	> 10.2 µM	0.958	> 10 µM	0.98	> 5.12 µM	0.755	0.026 µM	0.911	> 10.2 µM	0.863	> 2 µM
SKN-3 (head and neck, adherent)	0.941	> 5 µM	0.921	> 4000 µM	0.842	0.448 µM	0.963	> 10.2 µM	0.939	> 10 µM	0.973	> 5.12 µM	0.882	> 0.064 µM	0.983	> 10.2 µM	0.901	> 2 µM
SNG-M (endometrium, adherent)	0.983	> 5 µM	0.983	> 4000 µM	0.984	> 0.5 µM	0.882	> 10.2 µM	0.976	> 10 µM	0.892	> 5.12 µM	0.422	0.00246 µM	0.92	> 10.2 µM	0.967	> 2 µM
SNU-182 (liver, adherent)	0.986	> 5 µM	0.973	> 4000 µM	0.946	> 0.5 µM	0.978	> 10.2 µM	0.981	> 10 µM	0.956	> 5.12 µM	0.643	0.0101 µM	0.986	> 10.2 µM	0.972	> 2 µM
SNU-387 (liver, adherent)	0.984	> 5 µM	0.837	3230 µM	0.984	> 0.5 µM	0.97	> 10.2 µM	0.973	> 10 µM	0.758	2.01 µM	0.621	0.00905 µM	0.984	> 10.2 µM	0.948	> 2 µM
SNU-423 (liver, adherent)	0.983	> 5 µM	0.843	3570 µM	0.983	> 0.5 µM	0.965	> 10.2 µM	0.982	> 10 µM	0.931	> 5.12 µM	0.56	0.00602 µM	0.879	> 10.2 µM	0.962	> 2 µM
SNU-449 (liver, adherent)	0.986	> 5 µM	0.768	1630 µM	0.933	> 0.5 µM	0.916	> 10.2 µM	0.939	> 10 µM	0.858	4.87 µM	0.916	> 0.064 µM	0.961	> 10.2 µM	0.942	> 2 µM
SR (lymphoid neoplasm, suspension)	0.906	> 5 µM	0.508	263 µM	0.987	> 0.5 µM	0.937	> 10.2 µM	0.92	> 10 µM	0.911	> 5.12 µM	0.524	0.00461 µM	0.692	2.08 µM	0.899	> 2 µM
SU8686 (pancreas, adherent)	0.974	> 5 µM	0.813	2490 µM	0.905	> 0.5 µM	0.977	> 10.2 µM	0.959	> 10 µM	0.982	> 5.12 µM	0.768	0.0269 µM	0.982	> 10.2 µM	0.96	> 2 µM
SU-DHL-5 (B-cell lymphoma, suspension)	0.976	> 5 µM	0.015	< 15.6 µM	0.983	> 0.5 µM	0.994	> 10.2 µM	0.981	> 10 µM	0.916	4.2 µM	0.387	0.00212 µM	0.895	7.01 µM	0.912	1.58 µM
SUIT-2 (pancreas, adherent)	0.976	> 5 µM	0.461	194 µM	0.982	> 0.5 µM	0.952	> 10.2 µM	0.968	> 10 µM	0.843	3.9 µM	0.866	0.0616 µM	0.948	> 10.2 µM	0.986	> 2 µM
SW13 (adrenal gland, adherent)	0.965	> 5 µM	0.863	3520 µM	0.936	> 0.5 µM	0.988	> 10.2 µM	0.797	4.8 µM	0.988	> 5.12 µM	0.544	0.00528 µM	0.987	> 10.2 µM	0.966	> 2 µM
SW626 (ovary, adherent)	0.984	> 5 µM	0.778	1940 µM	0.983	> 0.5 µM	0.957	> 10.2 µM	0.956	> 10 µM	0.926	> 5.12 µM	0.757	0.0259 µM	0.933	> 10.2 µM	0.967	> 2 µM
SW780 (bladder, adherent)	0.986	> 5 µM	0.738	1280 µM	0.985	> 0.5 µM	0.985	> 10.2 µM	0.959	> 10 µM	0.938	> 5.12 µM	0.678	0.0133 µM	0.986	> 10.2 µM	0.983	> 2 µM
